Laboratory results from PubChem BioAssay AID743279 (National Center for Advancing Translational Sciences (NCATS), 2014).
The whole screen tested about 360,000 compounds, of which about 17,000 (4.7%) were called active. Inconclusive results, whose numbers are uncertain, are shown with a selection of clear calls. Rule as the data show it: active = activity change below about -50%; inconclusive = mostly about -30% to -49%; inactive = weaker than that.

experiment: qHTS for Inhibitors of Inflammasome Signaling: IL-1-beta AlphaLISA Primary Screen; settings: THP-1 LPS/ATP IL-1B secretion, 16 h; at 57.5 µM, active compounds read low
Method in brief: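 Secreted IL-1B measured by AlphaLISA bead assay after 16 h compound exposure of THP-1 cells; compounds (final up to 57.5 uM) added 1 h before LPS (250 ng/mL) and ATP (1.25 mM) stimulation; lower signal means less secretion.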
% is scaled to controls: 0 for no effect and ±100 for the full control effect.

Activity change, active:
COC(=O)CCS(=O)(=O)c1nc(-c2ccccc2)cc(C(F)(F)F)n1 -105%
Cc1ccc(NC(=O)c2cc3ccccc3o2)cc1Cl -51.9%
CCCCc1ccc(-c2csc(/C(C#N)=C\c3ccc(C)o3)n2)cc1 -50.1%
CN1CCN(c2ccccc2NC(=O)c2ccc(Br)o2)CC1 -52.5%
COCCN(CC(=O)NC1CCCCC1)C(=O)/C=C/C(=O)c1ccc(OC)cc1O -101%
CCOC(=O)c1c(-c2ccccc2)c2cc(OC)ccc2n1CCCN(C)C -50.4%
CC(C)(C)c1ccc(OCCCCCCN2CCNCC2)cc1 -80.4%
CCc1nc2c(OCc3ccc(Cl)cc3Cl)cccn2c1N(C=O)Cc1ccc(OC)cc1 -67.4%
Cc1cc(/C=C\c2ccccc2)nc2ccccc12 -52.3%
CCN(CC)S(=O)(=O)c1cccc(NC(=O)c2ccc(Br)cc2)c1 -70.3%
Cc1cc2c(=O)n(Cc3ccco3)c(SCC(=O)N3CCCc4ccccc43)nc2s1 -66.9%

Activity change, inactive:
CCOC(=O)CC(NC(=O)Cc1ccc(F)cc1)c1ccccc1Cl (stereo unspecified) -13.9%
Cn1c(=O)c(-c2ccccc2)cc2ccccc21 31.2%
CC(=O)N1c2ccc(S(=O)(=O)NCCC(=O)N3CCC(C)CC3)cc2CC1C (stereo unspecified) 15.9%
CCN(CC(=O)Nc1ccccc1C(F)(F)F)C(=O)CCSc1ccc(F)cc1 -13.9%
Cc1ccc(/C=C/S(=O)(=O)NCCC(=O)NCc2ccc(F)cc2)cc1 -2.69%
COC1OC(c2ccccc2)=C(c2ccc(C(N)=O)cc2)c2ccc(F)cc21 (stereo unspecified) 5.05%
COc1ccc(C(=O)CC(C#N)c2ccc3c(c2)OCO3)cc1OC (stereo unspecified) -10.4%
CCOC(=O)c1ccc2c(c1)C1C=CCC1C(C(=O)OCC)N2 (stereo unspecified) 3.36%
CCCCC1=CC2=C(c3ccco3)C(=O)C(C)(OC(=O)c3ccc(OC)cc3)C(=O)C2=CN1C1CCCCC1 (stereo unspecified) -13.7%
COc1ccccc1CNC(=O)COC(=O)C1CCN(S(=O)(=O)c2ccc(C)c(C)c2)CC1 -0.469%
O=C(c1ccc(Cn2cc([N+](=O)[O-])cn2)o1)N1CCCCCC1 8.87%
C[C@@H]1CN([C@H](C)CO)C(=O)CCCn2nncc2CO[C@@H]1CN(C)S(=O)(=O)c1ccccc1 -15.3%
O=S1(=O)CCC(NC(=S)NCCNC(=S)NC2CCS(=O)(=O)C2)C1 (stereo unspecified) 0%
Cc1cc(C(=O)N/N=C/c2ccc(-c3ccc(C)c(Cl)c3)o2)n[nH]1 1.46%
COc1cccc(C=C(C#N)C(=O)c2ccccc2)c1 22.9%
COc1ccc(-c2cc(C(F)(F)F)nc(SCc3cccc(C(=O)O)c3)n2)cc1 -0.756%
Oc1ccc2ccccc2c1CN1CCCCC1 13.1%
Clc1cccc(Cc2c(C3CCCCC3)nc3c4ccccc4ccn23)c1 16.9%
Cc1ccc(S(=O)(=O)N2CCOCC2)cc1NC(=O)COC(=O)C1(C)CC1(Cl)Cl (stereo unspecified) 0.452%
CN(C)c1ccc(/C=N\NC(=O)c2ccc(Cn3cc(Cl)cn3)cc2)cc1 6.49%

Activity change, inconclusive:
COC(=O)c1ccccc1NC(=O)c1ccc(NS(C)(=O)=O)cc1 -34%
COc1cc(C(=O)NC(C)C2CC3CCC2C3)ccc1OC(F)F (stereo unspecified) -36.9%
CCc1ccc(S(=O)(=O)N/N=C\c2ccc([N+](=O)[O-])o2)cc1 -37%
O=S(=O)(c1ccccc1)N1CCC(O)(CSc2ccc(Cl)cc2)CC1 -41.6%
CCN(C(=O)COC(=O)/C=C/c1ccc(F)cc1)C1CCCCC1 -47%
Cc1ccc(NC(=O)c2ccccc2)cc1 -34.3%
Cc1cc(F)ccc1S(=O)(=O)N1CCCOC1CNC(=O)C(=O)NCCc1c[nH]c2ccccc12 (stereo unspecified) -31.5%
CC1(C)Cc2c(sc3c2c(=N)n(Cc2ccco2)c(=O)n3CC(=O)Nc2cccc(Cl)c2)CO1 -30.8%
CC(=O)CSc1cc(-c2ccccc2)nc2ncnn12 -48%
Cc1cc(N/N=C/c2ccc(O)cc2)c2cccc(C)c2n1 -39.7%
N#CCc1ccc(OCCCN2CCC(C(O)(c3ccccc3)c3ccccc3)CC2)cc1 -37.5%
CCc1ccc(/C=N/NC(=O)c2c[nH]c3ccccc23)s1 -38.7%
O=C(CCSc1nnc(-c2ccncc2)o1)Nc1ccccc1 -31.1%
CCCN1CCN(C(=O)C2CCN(S(=O)(=O)c3c(C)noc3/C=C/c3ccc(C)cc3)CC2)CC1 -45.7%
O=C(NC(c1ccc(Cl)cc1)c1cnccn1)C1CCN(CCCc2ccccc2)CC1 (stereo unspecified) -42.4%
CCn1c2ccccc2c2cc(NC(=O)CSc3nnc(-c4ccccc4)o3)ccc21 -47.7%
CCSc1nc2nn(-c3ccccc3)c(=O)c-2c2n1CCCCC2 -35.3%
COc1ccc(-n2nc(C(=O)NCC(=O)N3CCN(Cc4ccc5c(c4)OCO5)CC3)c3ccccc3c2=O)cc1OC -48.1%
CCCCOc1ccc2c(C)cc(=O)oc2c1OCCCC -35.9%
C/C(=N\NC(=O)CN(c1ccccc1Br)S(C)(=O)=O)c1ccc2c(c1)OCCO2 -47.3%
COc1ccccc1C(NC(=O)C1CCN(CCOc2ccc3ccccc3c2)CC1)c1ccccn1 (stereo unspecified) -45.9%
CC(C(=O)c1ccc(Br)cc1)[n+]1cccc(NC(=O)c2ccccc2)c1 (stereo unspecified) -35.2%
O=C(O)C1CC=CCC1C(=O)Nc1ccc2c(c1)OCCO2 (stereo unspecified) -36.7%
CC(=O)N(Cc1ccco1)c1nc(C(=O)Nc2ccc(Cl)cc2)c(C)s1 -48.1%
COc1ccc(S(=O)(=O)NCC(c2cccnc2)N2CCN(c3ccc(F)cc3)CC2)cc1C (stereo unspecified) -43.3%
CCCCc1ccc(NC2=NCC(=O)N2CCc2ccccc2)cc1 -34.5%
O=C(c1ccc(S(=O)(=O)N2CCOCC2)cc1)N(Cc1ccco1)Cc1cccs1 -34.6%
Cc1ccc([N+](=O)[O-])cc1NC(=O)CN(C)CCOc1ccccc1 -34%
CCc1ccc(NC(=O)CSc2nc(=O)n(CCCN3CCOCC3)c3c2CCCC3)cc1 -32.2%
O=C(NCCCN1CCOCC1)c1ccc(Sc2cccc(Cl)c2)c([N+](=O)[O-])c1 -35.3%
CC(=O)c1ccc(OC(C)C)c(CSC(=N)N)c1 -35.9%
Nc1c(C(=O)Nc2ccc(F)cc2)nnn1-c1cccc(C(F)(F)F)c1 -31.1%
COc1ccc(CCNc2oc(-c3ccco3)nc2C#N)cc1 -36.2%
CCCCOc1ccc(NC(=O)C(=O)NCCC2=CCCCC2)cc1 -31.3%
COC(=O)c1cc(OC)c(OC)cc1NC(=S)N1CCN(C)CC1 -34.6%
CCOc1ccc(-n2cc(C(=O)Nc3cccc(Cl)c3)c3cc(OC)c(OC)cc3c2=O)cc1 -46.2%
COc1ccc(-c2[nH]ncc2CN2CCN(C3CCCCC3)C(=O)C2)cc1F -43.1%
COc1ccc(Br)cc1CN(C)CC(=O)Nc1cc(Cl)cc(Cl)c1 -32%
CCc1sc(C(=O)NCc2ccco2)cc1Br -34.2%
Cc1oc2c(C)c3oc(=O)c(CCC(=O)N4C[C@H]5C[C@@H](C4)c4cccc(=O)n4C5)c(C)c3cc2c1C -42.4%
O=C(NCC1CCCO1)c1cc(C(=O)C2CC2)c[nH]1 (stereo unspecified) -31.7%
Cc1ccc(C(NC(=O)C2CCN(CCCOc3ccccc3)CC2)c2ccccn2)cc1 (stereo unspecified) -41.4%
COc1cc(OC)cc(C(=O)N[C@H](C(=O)Nc2ccc3c(c2)OCO3)C(C)C)c1 -34.6%
COc1cc(/C=C2\SC(=Nc3ccccc3)N(CCc3c[nH]c4ccccc34)C2=O)ccc1OC(C)C(=O)O (stereo unspecified) -35.6%
Cc1ccc(CCNC(=O)CN2C(=O)CSc3ccc(S(=O)(=O)N4CCOCC4)cc32)cc1 -38%
O=S1(=O)N=C(N(CCO)/N=C/c2ccccc2)c2ccccc21 -34.8%
CCn1nccc1C(=O)Nc1cc(Cl)cc(Cl)c1 -39.6%
COc1ccc(N(CC(=O)Nc2c(C)n(C)n(-c3ccccc3)c2=O)S(=O)(=O)c2ccc(F)cc2)cc1 -44.2%
Cc1ccc(CCN=c2c([N+](=O)[O-])nn(-c3ccccc3)n2O)cc1 -35.4%
O=C(CCS(=O)(=O)c1ccc(F)cc1)Nc1nc(-c2ccncc2)cs1 -38.5%
CSc1ccccc1OCc1cc(C(=O)N2CCc3sccc3C2)no1 -49%
COc1ccc(C(=O)c2c(C)oc3ccc(O)cc23)c(OC)c1 -34.5%
COC(=O)c1nc(-c2ccc(C)cc2)[nH]c1C(C)(C)C -45.8%
COc1ccc(CCN(C)C/C=C/c2ccccc2[N+](=O)[O-])cc1OC -44.7%
CC(=O)O[C@@H]1[C@@]2(C)O[C@H]2CC[C@]23O[C@H]2[C@H](OC3=O)C2=C(C)C(=O)O[C@@]21O -32.3%
